# Test results: ChEMBL document CHEMBL5308541, “MAIP: An Open-Source Tool to Enrich High-Throughput Screening Output and Identify Novel, Druglike Molecules with Antimalarial Activity” (ACS Med Chem Lett, 2023)
# The whole screen tested about 150,000 compounds, of which about 540 (0.36%) showed an effect of 50% or more. The list shows a part of the results.
# Tested on: Plasmodium falciparum
# Experiment: Primary screen in NF54 nanoGlo assay, in single point, at 2uM, 72h; a lower Z score goes with more inhibition
# Type: functional, Erythrocyte
# Conditions: timepoint 72 hour
Compound,% Inhibition [%],Z score
CN(Cc1ccccc1)Cc1c(-c2ccccc2)nc2ccc(Cl)cc2c1O,6,-1.24
CCc1cc(NCCc2nc3cc(F)ccc3[nH]2)nc(-c2ccccn2)n1,21,-4.45
COC(=O)c1ccc(F)c(S(=O)(=O)N[C@@H](CC(C)C)c2nc(-c3nc[nH]n3)no2)c1,1,-0.13
Cc1nc(C)c(C(=O)N(C)C2CN(c3cnccn3)C2)s1,-8,1.26
N#Cc1cc(NCc2cccc(C(N)=O)c2)nc2ccc(Cl)cc12,-12,2.01
Nc1nc(NCc2cc3ccc(F)cc3[nH]c2=O)cc(N2CCOCC2)n1,-6,1.3
c1cnc(NCCNCc2c[nH]nc2-c2cc3ccccc3o2)nc1,0,-0.07
CC(C)c1ccc2c(c1)[C@H](NC(=O)Cc1c[nH]c3ncccc13)CCC2,-14,2.78
CCc1cnc(CNc2ccc(F)c(S(N)(=O)=O)c2)s1,-10,1.55
COCC[C@H]1CCCCN1C(=O)c1cccc(-c2ccc3[nH]nc(N)c3c2)c1,4,-0.65
Cc1noc(-c2ccc(NC(=O)N[C@@H]3COC4(CCCCC4)C3)cc2)n1,-11,1.83
CCNc1ccnc(N[C@@H](C)CC(C)(C)c2ccccc2)n1,-12,2.67
CCc1cc(N2CCC(NCc3cccc(N4CCCC4)c3)CC2)nc(C)n1,-10,2.06
CNC(=O)[C@H]1CCN(Cc2cccc(C(=O)Nc3ccc4[nH]ncc4c3)c2)C1,-7,1.14
Cc1cccc2c(N3CC[C@H](Oc4cccnc4N4CCCC4)C3)ncnc12,-7,1.14
CN1CCN(Cc2ccc(C(=O)NCC3CCN(CC#N)CC3)cc2)CC1,-10,1.81
CC(C)n1cc(CNc2c(-c3nc4ccccc4[nH]3)cnn2C)cn1,2,-0.38
FC(F)(F)c1csc(CNc2ncnc3ccccc23)n1,4,-0.76
Cn1c(=O)[nH]c2ncc(-c3cccc(C(=O)N4CCC(C(=O)NCCCN5CCCC5)CC4)c3)cc21,-16,2.44
Cc1cc(C(=O)N[C@H](c2nc(-c3nc[nH]n3)no2)C(C)(C)C)c2ccccc2n1,-3,0.52
Cc1cc(C)c(CN2C[C@H]3CNC[C@H]3C2)cc1CN1CCN(C)CC1,15,-2.98

Compound,% Inhibition [%],Z score
Cc1cnc(NC2CC(=O)N3CCCCC23)nc1NC1CC(=O)N2CCCCC12 (centres undefined),30,-5.22
c1ccc(CN2CCN(CCNc3cc(C4CC4)ncn3)CC2)cc1,2,-0.35
Cc1n[nH]c(C)c1-c1c(-c2ccccc2)ncn1Cc1cc(C(C)C)no1,-2,0.4
C[C@@H](c1cccc(-c2cnn(CCO)c2)c1)N1CCCC1,-2,0.29
COCCNc1nc2c(c(N(C)Cc3cc(C)[nH]n3)n1)CCNCC2,-8,1.33
Cc1cc(N2CCC(NC3CCNC(c4ccccc4)C3)CC2)nc(C)n1 (centres undefined),30,-6.54
C[C@H]1CC2(CCNCC2)CN1C(=O)Cn1ncn(C)c1=O,-9,1.43
CCOc1ccc2nc(N3CCC[C@H]3C(=O)N3CCN(c4nc(C)cnc4C)CC3)nc(C)c2c1,-10,1.74
Cc1nc(N2CCCC2)nc(NCC2(N3CCN(C)CC3)CCCC2)c1C,4,-0.61
O=C1C[C@H](CNc2nc(-c3ccccc3)nc3ccccc23)CN1C1CCCC1,-5,1.03
CCN(C)CC1CCN(c2nc(NCCOC)nc(N3CCC(CN(C)CC)C3)n2)C1 (centres undefined),22,-4.3
CN1CCCN(CCC(=O)N2CCC3(CCNCC3)CC2)CC1,2,-0.3
c1cc(-c2ccc3c(c2)CCN3)n2ccnc2c1,3,-0.68
CS(=O)(=O)Cc1ccccc1CNC(=O)N1CCCc2n[nH]cc21,-4,0.89
COc1cccc(-c2nn(C(C)(C)C)cc2CNCc2cc(C)nn2C)c1,-1,0.08
CCCN(CC1CC1)C(=O)c1ccc(-c2nc3ccccc3[nH]2)cc1,-10,1.75
Cc1cccc(N2CCC(Nc3ncc(Br)cn3)CC2)n1,7,-1.11
COCCN(CC1CCCN2CCCCC12)C(=O)c1cc(-c2ccncc2)nc2ccc(C(C)C)cc12 (centres undefined),13,-2.89
C[C@H](Oc1ccc2c(c1)OCO2)C(=O)N(C)Cc1cccc2ncccc12,-9,1.73
Oc1ccc(OC(F)(F)F)cc1-c1ccc(NC2CCCC2)nn1,7,-1.51
COCCNC(=O)c1ccc(NC(=O)N(C)C[C@@]2(C)CCN(C)C2)cc1,2,-0.47

Compound,% Inhibition [%],Z score
FC(F)(F)c1cc(Oc2ccc3cn[nH]c3c2)nc(-c2cccnc2)n1,-11,2.11
O[C@H]1CCCN(C2CCN(CCCn3ccnc3)CC2)C1,-1,0.21
N#Cc1ccc2[nH]c(-c3ccco3)nc2c1,-1,0.12
Cc1cccc2c(C(=O)N(C)C3CCCCCC3)cc(-c3cnc(N)nc3)nc12,3,-0.59
O=C(CNC(=O)c1cnc2ccccc2c1O)NCc1nc2ccccc2s1,-8,1.15
COc1ccc2[nH]c(CN3CCCC[C@@H]3CCN3CCOCC3)c(C)c2c1,2,-0.29
COc1cc(-c2nc3c(C(C)(C)C)cc(C(C)(C)C)c(O)c3o2)ccc1O,-14,2.4
COCCOc1ccc(-c2noc([C@]3(C)COc4ccccc4O3)n2)cc1F,2,-0.33
CC(C)c1noc(-c2ccnc(N[C@H]3CCCN(c4nccn(C)c4=O)C3)c2)n1,-7,1.31
c1ccc(-c2cc3ccc4ccccc4c3[nH]2)cc1,-6,1.13
CC(C)(C)c1ccc(=O)n(C2CCN(C(=O)c3ccc(Cl)cc3)CC2)n1,-6,1.05
Cc1ccc(Nc2ccc(NCCNC(=O)c3cnccn3)nn2)nc1,-12,2.07
CN(Cc1nc2cc(Cl)ccc2[nH]1)C(=O)NC1CCN(CCO)CC1,6,-0.98
CN(C)CCn1ncc(C(=O)NC2CCN(CC3CCCC3)CC2)c1-c1ccccc1,0,0.06
Cc1onc(-c2ccc(F)cc2)c1C(=O)N1CCN([C@@H](C)c2nc3ccccc3s2)CC1,-4,0.76
c1ccc(-c2cncc(Oc3ncncc3-c3ccccc3)c2)cc1,4,-0.65
CCN(Cc1noc(C2CC2)n1)C(=O)c1c[nH]c2ccc(OC)cc2c1=O,-8,1.62
O=C(O)c1c[nH]c2cc(F)c(F)cc2c1=O,1,-0.17
Cc1nc(NC[C@H]2CN(C)CCN2C)cc(Nc2ccccc2)n1,-2,0.46
CCCc1nc(C)c(C(=O)N2CC(C)(C)C2C2CCCO2)o1 (centres undefined),-10,1.91
c1nc(Nc2ccc(OCc3noc(C4CC4)n3)cc2)c2cc[nH]c2n1,-3,0.69

Compound,% Inhibition [%],Z score
CC(c1ccc(Cl)cc1)N(C(=O)C1CC2CCC1C2)C1CC1 (centres undefined),-4,0.71
COCCCN1CC2(CCN(C(=O)[C@@H](C)Cn3cccn3)CC2)CC1=O,-3,0.63
CCN1CCC[C@@H]1CN(Cc1ccncc1)C(=O)c1cc2sccc2[nH]1,1,-0.31
COc1ccccc1N1CCN(S(=O)(=O)c2cc(C)cs2)CC1=O,5,-0.71
CN(C)Cc1nnc(NCCC2CCN(C3CCCC3)CC2)o1,-6,1.23
CN1CCCN(Cc2ccc(CNCc3cccc(O)c3)cc2)CC1,17,-3.36
C[C@@H](c1cccc(-c2ccc(-c3nc(C4CC4)no3)cn2)c1)N1CCCC1,-5,1.05
Cc1nnc(N2CCC(Oc3ccc(F)cc3F)CC2)o1,1,-0.16
c1ccc(-c2ccnc(NCc3cccc(N4CCCC4)c3)n2)nc1,8,-1.21
C[C@H]1Cc2cc(Cn3cnc(-c4ccccc4)c3-c3cncnc3)ccc2O1,-7,1.15
Cc1ccc(N2C[C@@H](C(=O)N3CCN(C(=O)c4cc(-c5ccncc5)[nH]n4)CC3)CC2=O)cc1C,-3,0.48
Nc1nc2c(c(NCc3ccccc3-c3ccccc3)n1)CCNC2,0,-0.09
Cc1ccc(CN2CC[C@H](NCc3cc(-c4cccnc4)[nH]n3)C2)cc1,7,-1.53
CN(Cc1cccc2cnccc12)C(=O)NCCN1CCCC[C@@H]1CO,-1,0.27
Cc1nccn1CCN(C)C1CCN(c2cccc(-c3ccco3)c2)CC1,-2,0.35
Cc1nc2ccc(C(=O)Nc3cn(C)nn3)cc2nc1C,-10,2.15
O=C(Nc1cc(C2CCOCC2)[nH]n1)c1ccc(F)s1,2,-0.3
C[C@@H](c1ccncc1)N1CCC(NC(=O)c2ccc3[nH]ccc3c2)CC1,0,-0.1
Cc1ccnc(NCCn2cnc(-c3ccccc3)c2-c2cccc(C#N)c2)c1,-5,0.91
